Screen size: about 46,000 compounds; about 60 (0.1%) were called active. About 3% were inconclusive and are not listed. Calls come from the whole dose curve; as a rule, active = well fitted inhibition curve with a large enough effect; inconclusive = small, poorly fitted or top-dose-only effect; inactive = no such curve, though single readings can be large or run the other way. The list shows a part of the results.
Assay: Primary qHTS assay for Inhibitors of ovarian cancer metastasis using an organotypic tumor microenvironment (TME) model.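 For activity change, negative = inhibition: plate controls were DMSO wells for no effect and tomatine positive control wells for full effect.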 Note: nearly all actives have a fitted effect of over 65% in size.
Conditions: SKOV3ip1-GFP adhesion/invasion on 3D omental model, fluorescence; series mostly up to 45.8 µM; activity change, negative = inhibition: at the top concentration
In short: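 qHTS, 4-pt dose (0.36-46 umol/L); SKOV3ip1-GFP, 1,200 cells/well, no FBS; primary omental fibroblast/mesothelial co-culture 48 h pre-grown; 2 h RT + 16 h 37 C; PBS wash, 4% PFA; GFP count 488/509 nm.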

Activity change, negative = inhibition, inactive:
Cc1ccccc1Nc1cc(C(=O)NCCCN2CCN(c3cccc(Cl)c3)CC2)c2ccccc2n1 -16.8%
CCCN(C(=O)c1cc2c(=O)oc3ccccc3c2s1)c1ccc(CC)cc1 3.53%
CC(C)C(=O)Nc1ccc2nc(SCC(=O)N3CCCC3)sc2c1 6.06%
CCc1ccc(OCC(=O)NC(Cc2c[nH]c3ccccc23)C(=O)O)cc1 (stereo not given) 4.14%
COc1cccc(OCc2nc3ccccc3n2CCOc2ccc(C)cc2)c1 6.43%
Cc1ccc(Cn2c(C(=O)O)c(CNCc3ccc(OC(C)C)cc3)c3ccc(C)cc32)cc1 -3.52%
COc1cc(OC)c(NC(=O)C2CCN(S(=O)(=O)c3c(C)noc3/C=C/c3c(C)cc(C)cc3C)CC2)cc1Cl 9.62%
COc1ccc(OC)c(NC(=O)CSc2ccc(-c3cccs3)nn2)c1 0.799%
COc1cccc(CNC(=O)c2cc(C)nc3c2c(C)nn3-c2ccc(C)cc2)c1 21.4%
COc1cccc(-n2c(=O)c3c(C)c(C)sc3n(CC(=O)NCCc3ccc(OC)c(OC)c3)c2=O)c1 5.04%
Cn1c(=O)oc2cc(S(=O)(=O)NC(Cc3ccccc3)C(=O)Nc3ccc(F)cc3)ccc21 (stereo not given) 0.0125%
CCn1c(C(=O)NCc2ccc(F)cc2)cc2oc3ccccc3c21 -4.1%
CC12CN3CC(c4ccccc4)(CN(C1)C3c1ccc(O)cc1)C2=O (stereo not given) -4.24%
COc1ccc2[nH]cc(CCNC(C)=O)c2c1 -2.53%
CCOC(=O)c1ccc(N2C(=O)c3n[nH]c(-c4cccs4)c3C2c2ccc(OCC)cc2)cc1 (stereo not given) -9.85%
COc1ccc(CCNc2oc(/C=C/c3cc(OC)c(OC)c(OC)c3)nc2C#N)cc1OC 3.01%
CCN1C(=O)c2ccccc2S(=O)c2ccc(C(=O)NCc3ccc(OC)cc3)cc21 (stereo not given) -6.69%
Cc1ccc(C)c2sc(NC(=O)c3ccc(S(=O)(=O)N4CCC(C)CC4)cc3)nc12 -8.48%
CCOc1ccc(NC(=O)CC2C(=O)N(c3ccc(F)cc3)C(=O)N2Cc2ccc(OC)c(OC)c2)cc1 (stereo not given) 3.13%
COC(=O)c1c(NC(=O)C(C)Oc2ccc(Cl)c(C)c2)sc(C)c1C (stereo not given) 5.36%
Cc1ccc(Sc2c(C)nn(-c3ccccc3)c2OC(=O)C(C)(C)C)cc1 -2.82%
Cc1c(Cl)ccc2sc(N3CCN(C(=O)C(C)C)CC3)nc12 -1.41%
CCOC(=O)c1c(C)oc2nc(C)nc(Nc3ccc(C)c(Cl)c3)c12 -8.71%
CCc1ccc(CNC(=O)c2cc(=O)[nH]c3ccc(S(=O)(=O)N4CCCCC4)cc23)cc1 -0.502%
O=C(NCCc1ccc(Cl)cc1)c1cnc2sc(N3CCOCC3)nn2c1=O -8.73%
Cc1oc(-c2cccc(Cl)c2)nc1CSc1nncn2c1cc1occc12 6.4%
O=C(NCc1ccccc1Cl)c1ccc2c(c1)NC(=O)C(CS(=O)(=O)Cc1ccc(F)cc1Cl)N2 (stereo not given) 2.51%
CCOc1ccccc1NC(=O)NCc1ccc2c(c1)CCN2C(=O)c1ccccc1 -9.37%
CN(C)c1ccc(CN(Cc2ccco2)C(=O)c2ccc(C(C)(C)C)cc2)cc1 -19.4%
Cc1cccc(C)c1Nc1c(-c2ccccc2F)nc2cccc(C)n12 1.24%
COc1ccc(OCC(=O)Nc2nnc(S(=O)(=O)N3CCc4ccccc43)s2)cc1 2.52%
Cc1cc(C)c(S(=O)(=O)Nc2ccc(-c3ccc(N4CCC(C)CC4)nn3)cc2)cc1C 26.6%
Cc1ccccc1C(=O)Nc1cc2c(cc1N1CCOCC1)n(C)c(=O)n2C 4.14%
CCCCN(CC)CCNC(=O)c1c(C)oc2ncnc(N3CCOCC3)c12 9.94%
COc1ccc2[nH]c(=O)c(CN(C(=O)c3cccc(Cl)c3)c3ccccc3C)cc2c1 -8.16%
Cc1ccc2oc3c(c(=O)c2c1)C(c1ccc(O)cc1)N(Cc1ccc2c(c1)OCO2)C3=O (stereo not given) -4.87%
C#CCn1c(C2CC(=O)N(c3ccc(OC)cc3)C2)nc2ccccc21 (stereo not given) 13.5%
Cc1ccc(CNC(=O)c2sc3nc[nH]c(=O)c3c2C)cc1 -9.1%
COc1ccc2occ(CC(=O)Nc3ccc(S(=O)(=O)Nc4nccc(C)n4)cc3)c2c1 6.82%
COc1cccc(-c2cc(C(=O)Nc3c(C)nn(Cc4ccccc4Cl)c3C)no2)c1 -4.27%
CC(C)CCn1c(=O)c2cccnc2n(CC(=O)Nc2ccc(F)cc2)c1=O -1.39%
COc1ccccc1-c1nc(SCC(=O)c2ccccc2)n[nH]1 -3.1%
COc1ccc(-c2[nH]c(-c3cccc(OC)c3)nc2SCC(=O)Nc2ccc3c(c2)OCO3)cc1 -11.7%
COc1cccc(CNC(=O)Cn2c(=O)ccc3cc(S(=O)(=O)N4CCC(C)CC4)ccc32)c1 -7.05%

outcome, inactive:
CCOC(=O)c1c(NC(=O)C(C)Sc2cn(CCNC(=O)c3c(F)cccc3F)c3ccccc23)sc2c1CCC2 (stereo not given)
COc1ccccc1NC(=O)CSc1nnc(N)s1
COc1ccc(OC)c(CCNC(=O)CS(=O)(=O)Cc2nc(-c3cccc(Cl)c3)oc2C)c1
O=C(CSc1nc2cc(C(=O)NC3CCCC3)ccc2c(=O)n1CC1CCCO1)c1cccc(Cl)c1 (stereo not given)
COc1ccc(OC)c(NS(=O)(=O)c2cc3c(cc2Cl)N(C(C)=O)CCO3)c1
Cc1ccc(-c2cc(C(=O)Nc3cc([N+](=O)[O-])ccc3C)no2)cc1F
CCOC(=O)c1c(NC(=O)c2cc(C(C)C)on2)sc(C(C)=O)c1C
COc1ccc(CC(=O)Nc2ccc3nc(Nc4ccc(OC)cc4)cc(C)c3c2)cc1
COc1cc(OC)c(Nc2nc3ccccc3c3nncn23)cc1Cl
COc1ccc(/C=C\c2onc(C)c2S(=O)(=O)N2CCC(C(=O)Nc3ccc(F)cc3F)CC2)cc1
Cc1ccc(-c2nc3nc(C)cc(N4CCN(c5cccc(C)c5C)CC4)n3n2)cc1
CCOC(=O)c1ccccc1NC(=O)C1CCN(c2ncnc3c2nc2n3CCCCC2)CC1
CCOc1ccc(C(=O)c2cn(CC(=O)Nc3ccc(OC)cc3)c3cc4c(cc3c2=O)OCCO4)cc1
CN1CCN(C2(CNC(=O)c3ccc(C(C)(C)C)cc3)CCCCC2)CC1
CC1CN(c2ccc(Cl)cc2)c2nc3c(c(=O)n(CC(=O)O)c(=O)n3C)n2C1 (stereo not given)
Cc1cc2nnc(SCc3ccc(F)cc3)n2c2ccccc12

From PubChem BioAssay AID1963576 (National Center for Advancing Translational Sciences (NCATS), 2024)
